Source: PubChem BioAssay AID624417 (National Center for Advancing Translational Sciences (NCATS), 2012)
Screen size: about 410,000 compounds; about 6,400 (1.6%) were called active. Inconclusive means that the source gave no clear call. Such entries were picked first, then a sample of the others. Calls come from the whole dose curve; as a rule, active = well fitted inhibition curve with a large enough effect; inconclusive = small, poorly fitted or top-dose-only effect; inactive = no such curve, though single readings can be large or run the other way. Potencies beside an inconclusive call are fits to weak or partial responses and may not hold up.

Molecular target: Glucagon-like peptide 1 receptor (Homo sapiens) (UniProt P43220)
Assay: qHTS of GLP-1 Receptor Inverse Agonists (Inhibition Mode); note: nearly all actives have a fitted effect of over 55% in size
Conditions: HEK293 GLP-1R CRE-luciferase, luminescence, 24 h, GLP-1R form is constitutively active; series mostly up to 38.3 µM
Outline: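 Stable HEK293 clone (constitutively active GLP-1R + cAMP-response luciferase); 200 cells/uL plated, 12 h pre-culture, compound 24 hr, 37 deg C/5% CO2; detection reagent 12 min RT; luminescence.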
Potency is the fitted concentration of half-maximal effect; tags give direction and shape of the fitted curve.

UniProt P43220, sequence (P43220 whole entry, looked up): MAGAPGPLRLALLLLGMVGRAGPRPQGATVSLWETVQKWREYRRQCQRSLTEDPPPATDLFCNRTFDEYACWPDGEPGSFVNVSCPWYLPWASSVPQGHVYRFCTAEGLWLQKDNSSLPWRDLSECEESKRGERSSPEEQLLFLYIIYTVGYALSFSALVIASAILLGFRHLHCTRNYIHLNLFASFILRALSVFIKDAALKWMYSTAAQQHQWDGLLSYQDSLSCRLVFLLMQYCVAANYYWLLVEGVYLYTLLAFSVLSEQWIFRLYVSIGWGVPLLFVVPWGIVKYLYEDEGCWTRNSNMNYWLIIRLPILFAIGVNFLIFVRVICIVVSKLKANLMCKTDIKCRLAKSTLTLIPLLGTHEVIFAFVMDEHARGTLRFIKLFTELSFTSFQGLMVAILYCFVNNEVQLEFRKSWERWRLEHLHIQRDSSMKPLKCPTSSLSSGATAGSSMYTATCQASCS

Potency, inconclusive:
CCCCCCCCCCOC(=O)Cn1c(COc2cccc(OC)c2)[n+](C)c2ccccc21 12.6 µM [inhibitor, partial curve, poor fit]
CCN1C(=O)[C@H]2[C@@H](c3ccc(-c4ccc(C(C)=O)cc4)c(OC)c3)N[C@@](Cc3ccccc3)(C(=O)OC)[C@H]2C1=O 28.2 µM [inhibitor, single point]
Cc1ccc(C23CC4CC(CC(NC(=O)NN)(C4)C2)C3)cc1 22.4 µM [inhibitor, single point]
N#Cc1nc(Cc2cccc3ccccc23)oc1N1CCC(C(N)=O)CC1 2.51 µM [inhibitor, full curve]
c1ccc(Oc2c3ccccc3nc3ccccc23)cc1 28.2 µM [inhibitor, single point]
Cc1ccc(Nc2nc(CSc3nnc(-c4ccccc4)n3C)cs2)cc1 20 µM [inhibitor, single point]
CC(C)(C)OC(=O)N(CCc1ccccc1)Cc1cccc(OCc2cccc(NC(=O)C3CC3)c2)c1 8.91 µM [inhibitor, partial curve, poor fit]
CCC(CC)COC(=O)C1=C(C)NC(=O)NC1c1cc(OC)ccc1OC (stereo not drawn) 6.31 µM [inhibitor, partial curve, poor fit]
CC(C)n1ncc2c(C(=O)N3CCN(c4ccc(F)cc4)CC3)cc(-c3ccccc3)nc21 12.6 µM [inhibitor, single point]
COC(=O)C1=C(C)N(Cc2ccccc2)C(=NCCc2ccccn2)N[C@H]1c1cccc(C(F)(F)F)c1 28.2 µM [inhibitor, single point]
COc1ccc(N(C(=O)CCl)C(C(=O)NCCc2ccccc2)c2cccs2)cc1 (stereo not drawn) 10 µM [inhibitor, partial curve, poor fit]
Cc1c(C(=O)NCc2ccccc2C(F)(F)F)sc(=O)n1Cc1cccc(C(F)(F)F)c1 12.6 µM [inhibitor, partial curve, poor fit]
N/C(=N\OC(=O)/C=C/c1ccc(Br)cc1)c1ccccn1 12.6 µM [inhibitor, single point]
Cc1ccc(Nc2nc(C(N)=O)c(NC(=O)c3ccccc3Br)s2)cc1 5.01 µM [inhibitor, partial curve]
O=C(N/N=C/c1c(Cl)cccc1Cl)c1n[nH]c2c1CCCC2 28.2 µM [inhibitor, single point]
CC(CCc1ccccc1)NC(=O)c1ccc(F)cc1 (stereo not drawn) 28.2 µM [inhibitor, single point]
CCN(c1ccc(NC(=O)COC(=O)/C=C/c2ccco2)cc1)C(C)C 28.2 µM [inhibitor, single point]
O=C(O)c1cc(-c2ccc(Br)s2)nc2ccccc12 31.6 µM [inhibitor, single point]
O=C(NCc1ccco1)c1ccc(-c2ccc(F)c(F)c2)c2ccoc12 28.2 µM [inhibitor, single point]
C=CCn1c(O)c(N=Nc2ccccc2O)c2ccccc21 15.8 µM [inhibitor, single point]
CC1=CC(=O)N(c2ccc(C)cc2)C1c1ccc(Cl)cc1 (stereo not drawn) 10 µM [inhibitor, partial curve, poor fit]
Cc1cccc(OCC(=O)Nc2nccs2)c1C 11.2 µM [inhibitor, single point]
COc1ccc(/C=C2\CCc3ccccc3C2=O)cc1Cn1nc(C)cc1C 7.08 µM [inhibitor, partial curve, poor fit]
Cc1ccc(-c2nn(-c3ccc(F)cc3)cc2C(=O)NCCCN2CCCC2=O)cc1 2.82 µM [inhibitor, partial curve, poor fit]
COc1ccccc1CNC(=O)CSc1ccc(C)cc1 28.2 µM [inhibitor, single point]
CC(=NNC(=O)c1ccncc1)c1ccc2ccccc2c1O 5.01 µM [inhibitor, full curve, poor fit]
Cc1cnc(CN2CCc3c([nH]c4ccccc34)C2CC(C)C)[nH]1 (stereo not drawn) 28.2 µM [inhibitor, single point]
O=C(CCN1c2ccccc2Sc2ccccc21)Nc1ccccc1 11.2 µM [inhibitor, partial curve, poor fit]
O=C(/C=C/NNC(=O)c1ccccc1)c1ccc(Br)cc1 3.16 µM [inhibitor, partial curve, poor fit]
C#CCN(C[C@@H]1[C@@H](OC(=O)NCc2ccccc2F)[C@@H](OC(=O)NCc2ccccc2F)Cn2c(=O)ccc(=O)n21)S(=O)(=O)c1ccc(C)cc1 6.31 µM [inhibitor, partial curve, poor fit]

Potency, active:
CC(C)c1c(C(=O)N/N=C/c2cccc3ccccc23)nnn1-c1nonc1N 6.31 µM

Potency, inactive:
O=C(O)C1C2C=CC(C2)C1C(=O)NCCCn1ccnc1 (stereo not drawn)
CCOc1ccc(NC(=O)Cn2c(=O)n(CC(=O)NCCc3ccccc3)c(=O)c3sccc32)cc1
Cc1noc(C)c1NC(=O)N(C)C[C@@H]1Oc2cc(Br)ccc2S(=O)(=O)N([C@@H](C)CO)C[C@H]1C
N#Cc1cnn2c(-c3ccc(Cl)cc3Cl)ccnc12
CC(C)(C)C1CCC(OCC(O)CN2CCN(Cc3ccccc3)CC2)CC1 (stereo not drawn)
Cc1ccc(C(=O)Nc2nc(-c3ccco3)c(-c3ccco3)s2)o1
COc1cc(Cl)c(C)cc1NC(=O)CCn1cnc2onc(-c3ccc(F)cc3)c2c1=O
CC(CNC(=O)Cn1c(-c2cccs2)cc2cc(Cl)ccc21)c1ccccc1 (stereo not drawn)
Cc1cc(C(=O)N2CCN(c3ccccc3O)CC2)c(C)o1
Cc1c(-c2nc3ccccc3[nH]2)cnn1C
CC(=O)c1ccc(NC(=O)CC2Sc3ccccc3NC2=O)cc1 (stereo not drawn)
COc1ccc(-c2csc3ncnc(Nc4cccc(F)c4)c23)cc1
